# Measurements reported in PubChem BioAssay AID686979 (National Center for Advancing Translational Sciences (NCATS), 2013).
# About 50,000 (12%) of roughly 420,000 compounds were called active. The shares of active, inactive and inconclusive entries below differ from those in the screen. Calls come from the whole dose curve; as a rule, active = well fitted inhibition curve with a large enough effect; inconclusive = small, poorly fitted or top-dose-only effect; inactive = flat fitted curve, though single readings scatter. Potencies of inconclusive entries are left out as doubtful fits.
# Assay: qHTS for Inhibitors of human tyrosyl-DNA phosphodiesterase 1 (TDP1): qHTS in cells in presence of CPT; note: nearly all actives have a fitted effect of over 55% in size
# Conditions: chicken DT40 Tdp1-/-;hTDP1 cells + 20 nM CPT, ATP luminescence, 48 h; activity change, negative = growth inhibition: at 46.2 µM (top of the series) unless noted
# In short: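 Chicken DT40 Tdp1-/- cells stably complemented with human TDP1 were seeded at 400 cells/well in medium containing 20 nM camptothecin, exposed to pin-transferred compounds, and grown at 37 °C for at least 48 hr. Viability was read as ATP luminescence.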
# % is set by controls: 0 for no effect and ±100 for the full control effect; potency is the fitted concentration of half-maximal effect; tags give direction and shape of the fitted curve.
Compound,Potency,"activity change, negative = growth inhibition"
CCCCCC(O)(CCCCC)C(=O)NNc1ccccc1,"inconclusive [inhibitor, single point]",–
CC(C)(Oc1ccc(Cl)cc1)C(=O)NC1CCCCC1,"inconclusive [inhibitor, single point]",–
COCCCNC(=O)c1oc2c(c1C)-c1nn(Cc3ccc(Cl)cc3)cc1CC2,active: 23.1 µM,–
Nc1nnc(SCn2nnc3ccccc3c2=O)s1,–,inactive: 3.45%
Cc1cc(C)cc(NS(=O)(=O)c2ccc(-n3cccn3)cc2)c1,active: 16.4 µM,–
Cn1cc(CCC(=O)NCc2ccc(Cl)cc2)c2ccccc21,"inconclusive [inhibitor, single point]",–
COCCNC(=O)C(OC(=O)c1ccco1)c1ccccc1F (stereo unspecified),"inconclusive [inhibitor, single point]",–
O=C(NC1CCCCCC1)C(Cc1ccccc1)n1cccc1 (stereo unspecified),"inconclusive [inhibitor, partial curve]",–
CCc1ccccc1NC(=S)NC1CC2CCC(C1)N2Cc1ccc(F)cc1 (stereo unspecified),"inconclusive [inhibitor, single point]",–
COc1ccc(-n2nc([N+](=O)[O-])c(=NCCc3ccc(Cl)cc3)n2O)cc1,"inconclusive [inhibitor, partial curve]",–
Cc1cccc(Cn2nc(C)c(NC(=O)c3ccc(F)cc3)c2C)c1,–,inactive: -4.13%
CN(C)Cc1c(C(=O)N/N=C/c2cccc(OCc3ccccc3)c2)nnn1-c1nonc1N,–,inactive: -27%
CN(CCC1CCCCO1)C(=O)c1cc(COc2ccc(F)cc2F)on1 (stereo unspecified),"inconclusive [inhibitor, single point]",–
O=C1/C(=C/c2ccccc2)N=C(N2CCOCC2)N1c1cccc(Cl)c1,"inconclusive [inhibitor, single point]",–
CN(CC(=O)Nc1ccccc1C(F)(F)F)C(=O)CC1OC(=O)c2ccccc21 (stereo unspecified),–,inactive: 14.3%
CN(C)c1nc(C=C(C#N)C#N)c(Cl)n1-c1ccc(F)cc1,active: 4.11 µM,–
CCN1CCOC(CC(=O)Nc2cccc([N+](=O)[O-])c2)C1=O (stereo unspecified),"inconclusive [inhibitor, partial curve, poor fit]",–
O=C(O)c1c(-c2ccccc2)oc2ccc(OCc3ccc(Cl)c(Cl)c3)cc12,"inconclusive [inhibitor, single point]",–
Cn1cnc(C(=O)NCc2ccccc2)c1C(=O)NCc1ccccc1,–,inactive: -12.8%
O=C(Nc1cccc(NC(=O)c2ccc(Cl)cc2)n1)c1ccc(Cl)cc1,–,inactive: 1.51%
CC1CCC(Nc2ncnc3onc(-c4ccc(F)cc4)c23)CC1 (stereo unspecified),–,inactive: -11.7%
